The text below walks through data of ChEMBL document CHEMBL1201862, “PubChem BioAssay data set” (2004).

Molecules are shown by their SMILES.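 Each compound was tested at five concentrations against cells in 96-well plates for 48 hours. Here, GI50 denotes the concentration required for 50% inhibition of growth.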 Activity calls are given as the source filed them. Cut-off read from the data, not from the text of the source: active = GI50 up to about 1.1 µM and inactive = higher.

The assay deals with NCI-H322M. Nature of the assay: growth of human tumour cells (NCI), 48 h.
Regarding `C1=c2ccccc2=C2C(=C(c3ccccc3)C(c3ccccc3)=NN2c2ccccc2)S1`, the GI50 is inactive: > 100 µM.
Then `Cc1ccc(NC(=O)c2ccccc2C(=O)O)cc1C`, with inactive: > 100 µM; and `Oc1cc(-c2ccccn2)nc2cccc(F)c12`, with inactive: > 100 µM; and `c1ccc(NN(Cc2cnccn2)c2ccccc2)cc1`, with inactive: 92.3 µM.
Then `O=C(O)[C@@H](NS(=O)(=O)c1ccc([N+](=O)[O-])cc1)c1ccccc1`, with inactive: > 100 µM.
Then `O=C1CC(NC2CC(=O)c3c(Br)sc(Br)c32)c2c(Br)sc(Br)c21` (stereo not drawn), with inactive: 13.3 µM.
On to `COc1cc(C2SCC(=O)N2c2ccc(Cl)cc2)cc(I)c1O` (stereo not drawn), for which the GI50 was inactive: 45.1 µM.
As for `O=C1C=CC2(CCCCCCC2=O)CC1` (stereo not drawn), the GI50 is inactive: > 100 µM.
Consider `O=C(c1ccccc1)c1nnn(Cc2ccccc2Cn2nnc(C(=O)c3ccccc3)c2C(=O)c2ccccc2)c1C(=O)c1ccccc1`, for which the GI50 is inactive: > 100 µM.
Then `O=C1C=C(N2CCN(CCOCCO)CC2)C(=O)c2c(O)ccc(O)c21`, with inactive: 3.78 µM.
For `CC1(C)CC(=O)C(CC2C(=O)CCCC2=O)C(=O)C1`, the GI50 was inactive: > 100 µM.
As to `Cc1nc2ccc(F)cc2c(Cl)c1CCCl`, the GI50 is inactive: 73.3 µM.
To `CC(C)(C)C(=O)c1c(O)c2ccccc2c2ccccc2c1=O` belongs inactive: > 100 µM.
Then `COc1ccc2nc(NC(=O)C(=O)CC(=O)c3ccc([N+](=O)[O-])cc3)sc2c1`, with inactive: > 100 µM; and `CC(=O)Nc1ccc(-c2nnc(SCC(=O)Nc3ccc(Cl)cc3Cl)o2)cc1`, with inactive: 54.6 µM.
As to `O=C(/C=C/c1ccc(-c2ccccc2)cc1)NCc1ccc(C(=O)NCc2ccccc2)cc1`, the GI50 is inactive: > 100 µM.
To `O/N=C/c1ccc(O)c(O)c1` belongs inactive: > 100 µM.
`O=C1c2cc3c(cc2CC12Cc1cc4c(cc1C2=O)CCC4)CCCC3` (stereo not drawn): the GI50 is inactive: > 100 µM.
On to `Cc1nc2c(=O)n(-c3ccccc3)c(=O)n(-c3ccccc3)c2o1`, for which the GI50 was inactive: > 100 µM.
In the case of `Cc1ccc2c(c1)C(C1Cc3cccc(C)c3C1=O)OC2=O` (stereo not drawn), the GI50 is inactive: > 100 µM.
`CCOC(=O)N(C)C(=C(F)F)C(F)(F)F`: the GI50 was inactive: 50.2 µM.
To `O=c1/c(=C/c2ccccc2[N+](=O)[O-])sc2nc3ccccc3n12` belongs inactive: 44.4 µM; to `COc1cc2cc3c4c(cc(OC)c(OC)c4c2cc1OC)CCN3C(=O)N(C)C`, inactive: > 100 µM; to `N#Cc1[nH]c(=O)n(-c2cccc3ccccc23)c1N`, inactive: > 10 µM.
To `CCOC(=O)/C(=C\NC(=S)Nc1ccc(OCC)cc1)C(=O)c1ccccc1` belongs inactive: > 100 µM; to `CC(=O)c1cc2c(Br)cccc2oc1=O`, inactive: > 100 µM; to `CC(C)(CO)N1C(=O)c2ccccc2C1(O)c1ccc(Cl)cc1` (stereo not drawn), inactive: > 100 µM.
To `Cc1c(/C=N\NC(=S)N(C)CCN(C)C(=S)N/N=C\c2c(C)n(C)n(-c3ccccc3)c2=O)c(=O)n(-c2ccccc2)n1C` belongs inactive: > 100 µM.
With `Cc1ccnc2c1c(=O)c1ccccc1n2C`, the GI50 was inactive: 46.2 µM.
Consider `N#C/C(=C\c1cc(OCc2ccccc2)c(OCc2ccccc2)cn1)C(N)=O`, for which the GI50 is inactive: > 100 µM.
In the case of `O=C1C=CC(=O)C(CNc2ccc(C(=O)OC34CC5CC(CC(C5)C3)C4)cc2)=C1Br`, the GI50 is inactive: 15.1 µM.
To `CCCCCCN(N)C(=O)CC#N` belongs inactive: > 100 µM; to `Cn1cc2ccccc2c1-c1nc(F)nc(Oc2ccc3c(c2)CC[C@@H]2C3CC[C@@]3(C)C2CC[C@@H]3O)n1` (stereo partly drawn), inactive: 35.6 µM; to `CN(C)c1ccc(/C=N/Nc2nc3ccccc3c(=O)n2-c2ccccc2)cc1`, inactive: 92.3 µM.
Then `CC(C)(C)C1=CC(=C2C(=O)C(=O)c3ccccc3C2=O)C=C(C(C)(C)C)C1=O`, with inactive: > 100 µM.
To `CNC(=O)NC(CCCCNC(=O)OCc1ccccc1)C(=O)OCc1ccccc1` (stereo not drawn) belongs inactive: > 100 µM.
With `NCCN1CC2CCC(CC2)C1`, the GI50 is inactive: > 10 µM.
Then `COC(=O)C(Cc1nc2ccc(Cl)cc2nc1O)/C(=N\N)C(=O)Nc1cc(C)c(Cl)cc1S(=O)(=O)O` (stereo not drawn), with inactive: > 100 µM; and `CO/N=C(/C(=O)N(C(=O)/C(=N/OC)c1csc(NC(c2ccccc2)(c2ccccc2)c2ccccc2)n1)n1cnn(CC(=O)OC(C)(C)C)c1=O)c1csc(NC(c2ccccc2)(c2ccccc2)c2ccccc2)n1`, with inactive: > 10 µM.
As to `CCOC(=O)C#Cc1cccc(C#CC(=O)OCC)c1`, the GI50 is inactive: 13.1 µM.
As to `CCOC(=O)C(CCSC)(CCSC)C(=O)OCC`, the GI50 is inactive: > 100 µM.
Then `COc1ccc(-c2c(C3=NCCCN3)nnn2-c2ccc([N+](=O)[O-])cc2)cc1`, with inactive: > 100 µM; and `Cc1cc(=O)[nH]c(-n2[nH]c3c(c2=O)CCCC3)n1`, with inactive: > 100 µM; and `O=C1CSC(=S)N1c1ccc(F)cc1F`, with inactive: 62.4 µM.
As to `[O-][S+]1c2ccccc2N=C(c2ccc3ccccc3c2)CC1c1ccccc1` (stereo not drawn), the GI50 is inactive: 48.1 µM.
For `O=C(Nc1ccccc1)c1cc(S(=O)(=O)NC2=Nc3ccc(Cl)cc3C(c3ccccc3)N2)c(SSc2cc(Cl)c(C(=O)Nc3ccccc3)cc2S(=O)(=O)NC2=Nc3ccc(Cl)cc3C(c3ccccc3)N2)cc1Cl` (stereo not drawn), the GI50 is inactive: > 100 µM.
Then `COc1ccc(C[C@H]2COC(=O)[C@@H]2Cc2ccc(Br)cc2)cc1OC`, with inactive: 62.8 µM; and `NC(=O)c1nnc2ccc(F)cc2c1N`, with inactive: > 100 µM.
As to `O=C1NC(O)CCN1C1CC(O)C(CO)O1` (stereo not drawn), the GI50 is inactive: > 100 µM.
Then `O=C1/C(=C/Cc2ccco2)N=C(c2ccccc2)N1c1nc2c(Cl)cc(Cl)cc2s1`, with inactive: 40.9 µM; and `N=C(N)N/N=C/c1cc(Cl)cc(Cl)c1O`, with inactive: 76.4 µM.
To `N#CC1CCCCC1NC1(C#N)CCCCC1` (stereo not drawn) belongs inactive: > 100 µM; to `CC(=O)Nc1ccc(/C=C/C(=O)c2sc(-c3nc(C)c(C(=O)/C=C/c4ccc(NC(C)=O)cc4)s3)nc2C)cc1`, inactive: > 100 µM.
Then `C#CC1NC(=O)C1N(CC)CC` (stereo not drawn), with inactive: > 100 µM; and `Cc1cccc(/C=N/NC(=S)Nc2ccccc2)n1`, with inactive: 4.16 µM.
Take `Cc1ccc(C2(N3CCCC3)OC(C)(C)c3cccc4cccc2c34)cc1` (stereo not drawn): the GI50 is inactive: 17.7 µM.
Then `CSc1c(C(=O)Nc2ccc(Cl)cc2)c(N)nn1-c1ccccc1`, with inactive: > 100 µM; and `COc1cc(-c2nc(N)c(C#N)c3c2CCS(=O)(=O)c2ccc(C)cc2-3)cc(OC)c1OC`, with inactive: 61 µM; and `O=C1C(Cl)=C(Cl)C(=O)N1c1ccc(Cl)c(Cl)c1Cl`, with inactive: > 100 µM.
Then `Cc1csc(N/C=C2\C(=O)Oc3ccccc3C2=O)n1`, with inactive: 28.6 µM.
Then `CCCCCCc1cc2cc(C(=O)Nc3ccccc3)c(=N)oc2cc1O`, with inactive: 6.76 µM; and `Cc1ccc(S(=O)(=O)N2CCSCCN(S(=O)(=O)c3ccc(C)cc3)CCN(S(=O)(=O)c3ccc(C)cc3)CC2)cc1`, with inactive: > 100 µM.
As to `COc1ccc(C2C(C(=O)O)=C(COC(C)=O)Oc3cc4c(cc32)OCO4)cc1` (stereo not drawn), the GI50 was inactive: > 100 µM.
With `COC(=O)c1ccccc1C1CN=NC12Cc1ccccc1C2=O` (stereo not drawn), the GI50 was inactive: > 100 µM.
On to `CC(=O)OCC1OC(c2nnc(C)o2)=CC(OC(C)=O)C1OC(C)=O` (stereo not drawn), for which the GI50 is inactive: > 100 µM.
In the case of `COc1ccc(C2c3cc4c(cc3OC(NNc3ccccc3)C2C)OCO4)cc1` (stereo not drawn), the GI50 is inactive: 6.78 µM.
As to `Cc1ccc(OCC2OC(n3cnc4c(Cl)nc(Nc5cc(Cl)cc(Cl)c5)nc43)CC2Oc2ccc(C)cc2)cc1` (stereo not drawn), the GI50 is inactive: > 100 µM.
In the case of `CCOC(=O)Cn1c(C)nc2nn(Cc3ccccc3)cc2c1=O`, the GI50 is inactive: > 100 µM.
Turning to `COC(=O)C1=C(C(=O)OC)C2C(C)=CC(C)=CN2C(C#N)=C(SC)S1` (stereo not drawn), the GI50 is inactive: 57.9 µM.
For `CC(=O)OCc1nnn2c1CCC2`, the GI50 is inactive: > 100 µM.
Then `O=C1OC(c2ccccc2)=N/C1=C\c1cccc(F)c1`, with inactive: > 100 µM; and `CCCCCCCC(CC(=O)NC(CO)C(=O)NC(CO)CC(C)C)OC(=O)CC(CCCCCCC)OC(=O)CC(CCCCCCC)OC1OC(C)C(O)C(OC2OC(C)C(O)C(O)C2O)C1O` (stereo not drawn), with inactive: 12.3 µM.
As to `COC(=O)C1C2CCCN2OC1(C)CO` (stereo not drawn), the GI50 was inactive: > 100 µM.
On to `Cc1ccc(/C=C2\N=C(N3CCCCC3)NC2=O)cc1`, for which the GI50 was inactive: > 100 µM.
Regarding `O=[N+]([O-])c1ccc(C2=Nn3cnnc3SC2)o1`, the GI50 is inactive: 20 µM.
To `Cc1cc2c(c(O)c1-c1c(C)cc(O)c3c1C(=O)C=CC3=O)C(=O)C=CC2=O` belongs inactive: 17.2 µM.
Consider `O=C1/C(=C/c2ccc(Cl)cc2)N=C(c2ccccc2)N1c1nc2ccccc2s1`, for which the GI50 is inactive: > 100 µM.
Then `O/N=N/c1cnccn1`, with inactive: > 1250 µM; and `CCN(CC)CCC(=O)O[C@H]1CC[C@H](CC(C)[C@H]2CC(=O)C(C)C=C(C)[C@H](OC(=O)CCN(CC)CC)C(OC)C(=O)[C@@H](C)CC(C)/C=C/C=C/C=C(C)C(OC)CC3CC[C@H](C)[C@](O)(O3)C(=O)C(=O)N3CCCCC3C(=O)O2)CC1OC` (stereo partly drawn), with active: 0.813 µM.
For the molecule `C#CC1(O)CCC2[C@@H]3CCc4cc(Oc5nc(F)nc(-c6c7ccccc7cn6C)n5)ccc4C3CC[C@@]21C` (stereo partly drawn), the GI50 was inactive: > 100 µM.
Take `NC(CCC(=O)Nc1ccc(O)cc1)C(=O)O` (stereo not drawn): the GI50 is inactive: > 100 µM.
Then `Cc1cc(-c2nc3cccc(F)c3s2)ccc1N`, with inactive: > 73.5 µM; and `CC1(C)COC(c2cccc(C(O)c3ccc(Cl)cc3)c2)=N1` (stereo not drawn), with inactive: 45.9 µM.
